This test has as its target Endoplasmic reticulum resident protein 29 (UniProt P30040). The test is described as follows: cross-link between two proteins; cross-linking mass spectrometry.

Consider “DNA-directed RNA polymerase, mitochondrial, O00411”, for which the “listed as a hit” value is recorded as “yes”.

These data come from publication PMC11024108.
